Assay results as given in the supplement of paper PMC7125110.
± gives the standard error. This sample is rich in variants without activity.

B1: glmS ribozyme (parent)
chain: AUAAAAGCGCCAGAACUACAGAAAUGUAGUUGACGAGGAGGAGGUUUAUCGAAUUUUCGGCGGAUGCCUCCAAA

Columns and labels:
Conditions in all cases: with glucosamine-6-phosphate
[1] = variants of: B1; test: self-cleavage kobs at 40 uM GlcN6P; higher = faster cleavage; RNA array
Procedure, shortened: (§1)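 The measurements used barcoded ribozyme variants on sequenced MiSeq chips, transcribed in situ by E. coli RNA polymerase and tracked at 37 °C with a hybridised Cy3 probe. Glucosamine-6-phosphate, 40 μM to 10 mM in HEPES/KCl/Mg(OAc)2 buffer, was flowed in while tiles were imaged over ~14 h. Baseline-normalised signals, also normalised to non-cleaving reference variants, gave per-tile medians that were fit to one- or two-exponential decays for kobs. kcat and KM resulted from weighted Michaelis–Menten fits across concentrations.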

[2] = variants of: B1; test: self-cleavage kobs at 160 uM GlcN6P; higher = faster cleavage; RNA array
Procedure, shortened: as §1

[3] = variants of: B1; test: self-cleavage kobs at 10000 uM GlcN6P; higher = faster cleavage; RNA array
Procedure, shortened: as §1

[4] = variants of: B1; test: self-cleavage kobs at 640 uM GlcN6P; higher = faster cleavage; RNA array
Procedure, shortened: as §1

[5] = variants of: B1; test: kcat; higher = faster cleavage; RNA array
Procedure, shortened: as §1

[6] = variants of: B1; test: self-cleavage kobs at 2500 uM GlcN6P; higher = faster cleavage; RNA array
Procedure, shortened: as §1

Variant: A6U U30A
- self-cleavage kobs at 40 uM GlcN6P [1]: < 1e-05 s⁻¹
- self-cleavage kobs at 160 uM GlcN6P [2]: < 1e-05 s⁻¹
- self-cleavage kobs at 10000 uM GlcN6P [3]: 2.86e-05 ± 1e-05 s⁻¹

Variant: A6U U31A A33U G35U
- self-cleavage kobs at 40 uM GlcN6P [1]: < 1e-05 s⁻¹
- self-cleavage kobs at 640 uM GlcN6P [4]: < 1e-05 s⁻¹
- self-cleavage kobs at 10000 uM GlcN6P [3]: < 1e-05 s⁻¹

Variant: A12G A42C
- kcat [5]: < 1e-05 s⁻¹
- self-cleavage kobs at 640 uM GlcN6P [4]: < 1e-05 s⁻¹
- self-cleavage kobs at 160 uM GlcN6P [2]: < 1e-05 s⁻¹
- self-cleavage kobs at 2500 uM GlcN6P [6]: < 1e-05 s⁻¹

Variant: A6G U45A G60C
- self-cleavage kobs at 40 uM GlcN6P [1]: < 1e-05 s⁻¹
- self-cleavage kobs at 10000 uM GlcN6P [3]: < 1e-05 s⁻¹

Variant: A15C A48U G51C C68G
- kcat [5]: < 1e-05 s⁻¹
- self-cleavage kobs at 640 uM GlcN6P [4]: < 1e-05 s⁻¹
- self-cleavage kobs at 10000 uM GlcN6P [3]: < 1e-05 s⁻¹

Variant: A6G U45G
- self-cleavage kobs at 40 uM GlcN6P [1]: < 1e-05 s⁻¹
- self-cleavage kobs at 640 uM GlcN6P [4]: < 1e-05 s⁻¹
- self-cleavage kobs at 160 uM GlcN6P [2]: < 1e-05 s⁻¹

Variant: G44U U56C
- kcat [5]: < 1e-05 s⁻¹
- self-cleavage kobs at 40 uM GlcN6P [1]: < 1e-05 s⁻¹
- self-cleavage kobs at 640 uM GlcN6P [4]: < 1e-05 s⁻¹

Variant: A36C C71U
- kcat [5]: < 1e-05 s⁻¹

Variant: G7C C8G G9C C11A
- self-cleavage kobs at 40 uM GlcN6P [1]: < 1e-05 s⁻¹
- self-cleavage kobs at 10000 uM GlcN6P [3]: < 1e-05 s⁻¹

Variant: G9A U46A
- self-cleavage kobs at 40 uM GlcN6P [1]: < 1e-05 s⁻¹
- self-cleavage kobs at 640 uM GlcN6P [4]: < 1e-05 s⁻¹
- self-cleavage kobs at 10000 uM GlcN6P [3]: < 1e-05 s⁻¹

Variant: A6C C10G A36G G37A U56A C70A
- self-cleavage kobs at 40 uM GlcN6P [1]: < 1e-05 s⁻¹
- self-cleavage kobs at 10000 uM GlcN6P [3]: < 1e-05 s⁻¹

Variant: A6C A14U
- self-cleavage kobs at 40 uM GlcN6P [1]: < 1e-05 s⁻¹
- self-cleavage kobs at 160 uM GlcN6P [2]: < 1e-05 s⁻¹

Variant: G7U U46C C70G
- self-cleavage kobs at 40 uM GlcN6P [1]: < 1e-05 s⁻¹
- self-cleavage kobs at 2500 uM GlcN6P [6]: < 1e-05 s⁻¹
- self-cleavage kobs at 10000 uM GlcN6P [3]: < 1e-05 s⁻¹

Variant: G7A G21U G37C A52G
- self-cleavage kobs at 40 uM GlcN6P [1]: < 1e-05 s⁻¹
- self-cleavage kobs at 640 uM GlcN6P [4]: < 1e-05 s⁻¹

Variant: A15U G37C
- kcat [5]: < 1e-05 s⁻¹

Variant: C10U U49G A53G C61A G63U
- kcat [5]: < 1e-05 s⁻¹
- self-cleavage kobs at 10000 uM GlcN6P [3]: < 1e-05 s⁻¹

Variant: G29C G37C
- kcat [5]: < 1e-05 s⁻¹

Variant: G7C A36C A52U U56C C68U
- self-cleavage kobs at 40 uM GlcN6P [1]: < 1e-05 s⁻¹
- self-cleavage kobs at 10000 uM GlcN6P [3]: < 1e-05 s⁻¹

Variant: C8U C50U
- self-cleavage kobs at 40 uM GlcN6P [1]: < 1e-05 s⁻¹
- self-cleavage kobs at 640 uM GlcN6P [4]: < 1e-05 s⁻¹
- self-cleavage kobs at 160 uM GlcN6P [2]: < 1e-05 s⁻¹

Variant: G7U A36U
- self-cleavage kobs at 40 uM GlcN6P [1]: < 1e-05 s⁻¹
- self-cleavage kobs at 640 uM GlcN6P [4]: < 1e-05 s⁻¹
- self-cleavage kobs at 160 uM GlcN6P [2]: < 1e-05 s⁻¹

Variant: A6G U31A U46G C68G
- self-cleavage kobs at 40 uM GlcN6P [1]: < 1e-05 s⁻¹
- self-cleavage kobs at 10000 uM GlcN6P [3]: < 1e-05 s⁻¹

Variant: G38C C68U
- kcat [5]: < 1e-05 s⁻¹

Variant: C16A G59U
- kcat [5]: < 1e-05 s⁻¹
- self-cleavage kobs at 160 uM GlcN6P [2]: < 1e-05 s⁻¹
- self-cleavage kobs at 10000 uM GlcN6P [3]: < 1e-05 s⁻¹

Variant: G9C G51A C71U
- self-cleavage kobs at 40 uM GlcN6P [1]: < 1e-05 s⁻¹
- self-cleavage kobs at 640 uM GlcN6P [4]: < 1e-05 s⁻¹
- self-cleavage kobs at 10000 uM GlcN6P [3]: < 1e-05 s⁻¹

Variant: G38A G62C
- kcat [5]: < 1e-05 s⁻¹
- self-cleavage kobs at 40 uM GlcN6P [1]: < 1e-05 s⁻¹
- self-cleavage kobs at 10000 uM GlcN6P [3]: < 1e-05 s⁻¹

Variant: G37C U49A
- kcat [5]: < 1e-05 s⁻¹
- self-cleavage kobs at 10000 uM GlcN6P [3]: < 1e-05 s⁻¹

Variant: C8A G29A G51U
- self-cleavage kobs at 40 uM GlcN6P [1]: < 1e-05 s⁻¹
- self-cleavage kobs at 10000 uM GlcN6P [3]: < 1e-05 s⁻¹

Variant: A6C G32U G44C C68G
- self-cleavage kobs at 40 uM GlcN6P [1]: < 1e-05 s⁻¹
- self-cleavage kobs at 2500 uM GlcN6P [6]: < 1e-05 s⁻¹
- self-cleavage kobs at 10000 uM GlcN6P [3]: < 1e-05 s⁻¹

Variant: G38U U47A
- kcat [5]: < 1e-05 s⁻¹

Variant: G9A A14G G32U U65A
- self-cleavage kobs at 40 uM GlcN6P [1]: < 1e-05 s⁻¹
- self-cleavage kobs at 2500 uM GlcN6P [6]: < 1e-05 s⁻¹
- self-cleavage kobs at 10000 uM GlcN6P [3]: < 1e-05 s⁻¹

Variant: C8G U47G
- self-cleavage kobs at 40 uM GlcN6P [1]: < 1e-05 s⁻¹
- self-cleavage kobs at 640 uM GlcN6P [4]: < 1e-05 s⁻¹
- self-cleavage kobs at 160 uM GlcN6P [2]: < 1e-05 s⁻¹
- self-cleavage kobs at 2500 uM GlcN6P [6]: < 1e-05 s⁻¹

Variant: G63U C71A
- kcat [5]: < 1e-05 s⁻¹

Variant: G7A A42G G44U
- self-cleavage kobs at 40 uM GlcN6P [1]: < 1e-05 s⁻¹
- self-cleavage kobs at 10000 uM GlcN6P [3]: < 1e-05 s⁻¹

Variant: G9A A12U G41U
- self-cleavage kobs at 40 uM GlcN6P [1]: < 1e-05 s⁻¹
- self-cleavage kobs at 2500 uM GlcN6P [6]: < 1e-05 s⁻¹

Variant: A42U A64U
- kcat [5]: < 1e-05 s⁻¹
- self-cleavage kobs at 40 uM GlcN6P [1]: < 1e-05 s⁻¹
- self-cleavage kobs at 640 uM GlcN6P [4]: < 1e-05 s⁻¹
- self-cleavage kobs at 160 uM GlcN6P [2]: < 1e-05 s⁻¹
- self-cleavage kobs at 10000 uM GlcN6P [3]: < 1e-05 s⁻¹

Variant: A6C G9C G13U C61G
- self-cleavage kobs at 40 uM GlcN6P [1]: < 1e-05 s⁻¹
- self-cleavage kobs at 10000 uM GlcN6P [3]: < 1e-05 s⁻¹

Variant: C8A A14U C50A U56C
- self-cleavage kobs at 40 uM GlcN6P [1]: < 1e-05 s⁻¹

Variant: G9A G13A C34G U49C C68U
- self-cleavage kobs at 40 uM GlcN6P [1]: < 1e-05 s⁻¹

Variant: G9A G44A C67A
- self-cleavage kobs at 40 uM GlcN6P [1]: < 1e-05 s⁻¹

Variant: C11A A33U
- kcat [5]: < 1e-05 s⁻¹
- self-cleavage kobs at 40 uM GlcN6P [1]: < 1e-05 s⁻¹
- self-cleavage kobs at 640 uM GlcN6P [4]: < 1e-05 s⁻¹
- self-cleavage kobs at 160 uM GlcN6P [2]: < 1e-05 s⁻¹

Variant: G9A
- self-cleavage kobs at 40 uM GlcN6P [1]: < 1e-05 s⁻¹
- self-cleavage kobs at 160 uM GlcN6P [2]: < 1e-05 s⁻¹
- self-cleavage kobs at 2500 uM GlcN6P [6]: 1.33e-05 ± 3e-06 s⁻¹
- self-cleavage kobs at 10000 uM GlcN6P [3]: 2.61e-05 ± 1.5e-06 s⁻¹

Variant: G9U
- kcat [5]: < 1e-05 s⁻¹
- self-cleavage kobs at 40 uM GlcN6P [1]: < 1e-05 s⁻¹
- self-cleavage kobs at 640 uM GlcN6P [4]: < 1e-05 s⁻¹
- self-cleavage kobs at 160 uM GlcN6P [2]: < 1e-05 s⁻¹

Variant: G9C
- self-cleavage kobs at 40 uM GlcN6P [1]: < 1e-05 s⁻¹
- self-cleavage kobs at 640 uM GlcN6P [4]: < 1e-05 s⁻¹
- self-cleavage kobs at 160 uM GlcN6P [2]: < 1e-05 s⁻¹
- self-cleavage kobs at 2500 uM GlcN6P [6]: < 1e-05 s⁻¹
- self-cleavage kobs at 10000 uM GlcN6P [3]: < 1e-05 s⁻¹

Variant: C8G U31C
- self-cleavage kobs at 40 uM GlcN6P [1]: < 1e-05 s⁻¹
- self-cleavage kobs at 640 uM GlcN6P [4]: < 1e-05 s⁻¹
- self-cleavage kobs at 2500 uM GlcN6P [6]: < 1e-05 s⁻¹
- self-cleavage kobs at 10000 uM GlcN6P [3]: < 1e-05 s⁻¹

Variant: C8A U65C
- self-cleavage kobs at 40 uM GlcN6P [1]: < 1e-05 s⁻¹
- self-cleavage kobs at 2500 uM GlcN6P [6]: < 1e-05 s⁻¹
- self-cleavage kobs at 10000 uM GlcN6P [3]: < 1e-05 s⁻¹

Variant: C8A U65A
- self-cleavage kobs at 40 uM GlcN6P [1]: < 1e-05 s⁻¹
- self-cleavage kobs at 640 uM GlcN6P [4]: < 1e-05 s⁻¹
- self-cleavage kobs at 160 uM GlcN6P [2]: < 1e-05 s⁻¹

Variant: G37U A53U
- kcat [5]: < 1e-05 s⁻¹
- self-cleavage kobs at 40 uM GlcN6P [1]: < 1e-05 s⁻¹
- self-cleavage kobs at 640 uM GlcN6P [4]: < 1e-05 s⁻¹

Variant: C16A G63A
- kcat [5]: < 1e-05 s⁻¹
- self-cleavage kobs at 160 uM GlcN6P [2]: < 1e-05 s⁻¹
- self-cleavage kobs at 10000 uM GlcN6P [3]: < 1e-05 s⁻¹

Variant: G51A C58U
- kcat [5]: < 1e-05 s⁻¹
- self-cleavage kobs at 40 uM GlcN6P [1]: < 1e-05 s⁻¹
- self-cleavage kobs at 10000 uM GlcN6P [3]: < 1e-05 s⁻¹

Variant: C8G C10U G41A
- self-cleavage kobs at 40 uM GlcN6P [1]: < 1e-05 s⁻¹
